Laboratory results as given in the supplement of paper PMC10369915.
Some of the results follow. Cut-off read from the data, not from the text of the source: active = 3.2 or more and inactive = the rest. Only a few entries rise above the background.

Assays:
Assay in all cases: enrichment score (SH2-bound / input frequency) (ratio); bacterial display of known human phosphotyrosine sites (pTyr-Var adds point mutants) read by sequencing; higher = stronger binding; tyrosines were phosphorylated by kinases first
Settings in all cases: peptide library: pTyr-Var
SHP2 C-SH2 domain E139D = biological target: SHP2 C-SH2 domain E139D
[1] = biological target: SHP2 C-SH2 domain wild-type
SHP2 N-SH2 domain L43F = biological target: SHP2 N-SH2 domain L43F
SHP2 N-SH2 domain T42A = biological target: SHP2 N-SH2 domain T42A
SHP2 N-SH2 domain T52S = biological target: SHP2 N-SH2 domain T52S
[2] = biological target: SHP2 N-SH2 domain wild-type

Measured: enrichment score
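Note: displayed peptides selected on beads carrying the immobilized SH2 domain, with library peptides lacking any tyrosine serving as negative controls.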

TFTVSYLPDMS [FLNC_Y1602_YF]
inactive: SHP2 C-SH2 domain E139D 1.3 | [1] 1.03 | SHP2 N-SH2 domain L43F 1.25 | SHP2 N-SH2 domain T42A 1.13 | SHP2 N-SH2 domain T52S 1.14 | [2] 1.07

SRGSSYSSIPK [FLNC_Y2625]
inactive: SHP2 C-SH2 domain E139D 0.466 | [1] 0.367 | SHP2 N-SH2 domain L43F 0.432 | SHP2 N-SH2 domain T42A 0.474 | SHP2 N-SH2 domain T52S 0.448 | [2] 0.471

ISNATYKQIGL [FLT1_Y199_E201Q]
inactive: SHP2 C-SH2 domain E139D 0.468 | [1] 0.435 | SHP2 N-SH2 domain L43F 0.44 | SHP2 N-SH2 domain T42A 0.491 | SHP2 N-SH2 domain T52S 0.412 | [2] 0.543

CERLPYDANKW [FLT1_Y815_S818N]
inactive: SHP2 C-SH2 domain E139D 1.03 | [1] 1.16 | SHP2 N-SH2 domain L43F 0.849 | SHP2 N-SH2 domain T42A 0.792 | SHP2 N-SH2 domain T52S 0.73 | [2] 1.15

SLAARYFNWVS [FLT4_Y1230_YF]
inactive: SHP2 C-SH2 domain E139D 2.1 | [1] 1.95 | SHP2 N-SH2 domain L43F 1.99 | SHP2 N-SH2 domain T42A 1.92 | SHP2 N-SH2 domain T52S 2.23 | [2] 1.88

LAARFYNWVCF [FLT4_Y1231_S1235C_YF]
inactive: SHP2 C-SH2 domain E139D 2.22 | [1] 2.22 | SHP2 N-SH2 domain L43F 2.08 | SHP2 N-SH2 domain T42A 2.24 | SHP2 N-SH2 domain T52S 2.17 | [2] 2.05

LAARFYNWVSF [FLT4_Y1231_YF]
inactive: SHP2 C-SH2 domain E139D 2.82 | [1] 2.61 | SHP2 N-SH2 domain L43F 2.42 | SHP2 N-SH2 domain T42A 2.95 | SHP2 N-SH2 domain T52S 2.76 | [2] 2.54

GGQVFYNSEYG [FLT4_Y1333]
inactive: SHP2 C-SH2 domain E139D 1.3 | [1] 0.909 | SHP2 N-SH2 domain L43F 1.12 | SHP2 N-SH2 domain T42A 0.963 | SHP2 N-SH2 domain T52S 0.868 | [2] 0.989

FYNSEYGELSE [FLT4_Y1337]
inactive: SHP2 C-SH2 domain E139D 0.751 | [1] 0.677 | SHP2 N-SH2 domain L43F 0.702 | SHP2 N-SH2 domain T42A 0.857 | SHP2 N-SH2 domain T52S 0.773 | [2] 1.11

FHNSEYGELSE [FLT4_Y1337_Y1333H]
inactive: SHP2 C-SH2 domain E139D 0.549 | [1] 0.466 | SHP2 N-SH2 domain L43F 0.466 | SHP2 N-SH2 domain T42A 0.651 | SHP2 N-SH2 domain T52S 0.885 | [2] 0.472

FFNSEYGELSE [FLT4_Y1337_YF]
inactive: SHP2 C-SH2 domain E139D 1.06 | [1] 0.764 | SHP2 N-SH2 domain L43F 0.808 | SHP2 N-SH2 domain T42A 0.889 | SHP2 N-SH2 domain T52S 0.94 | [2] 0.972

GRVLGYGAFGK [FLT4_Y853]
inactive: SHP2 C-SH2 domain E139D 0.969 | [1] 0.93 | SHP2 N-SH2 domain L43F 0.863 | SHP2 N-SH2 domain T42A 0.835 | SHP2 N-SH2 domain T52S 0.945 | [2] 1.07

NAGAFYALSTL [FLVCR2_Y325]
inactive: SHP2 C-SH2 domain E139D 0.887 | [1] 0.725 | SHP2 N-SH2 domain L43F 0.711 | SHP2 N-SH2 domain T42A 0.752 | SHP2 N-SH2 domain T52S 0.779 | [2] 0.777

TCFDKYTGSTF [FN1_Y101_N104S_YF]
inactive: SHP2 C-SH2 domain E139D 0.581 | [1] 0.678 | SHP2 N-SH2 domain L43F 0.584 | SHP2 N-SH2 domain T42A 0.596 | SHP2 N-SH2 domain T52S 0.673 | [2] 0.915

YTGNTYRVGDT [FN1_Y106]
inactive: SHP2 C-SH2 domain E139D 0.712 | [1] 0.681 | SHP2 N-SH2 domain L43F 0.663 | SHP2 N-SH2 domain T42A 0.536 | SHP2 N-SH2 domain T52S 0.623 | [2] 0.717

FTGSTYRVGDT [FN1_Y106_N104S_YF]
inactive: SHP2 C-SH2 domain E139D 0.852 | [1] 0.661 | SHP2 N-SH2 domain L43F 0.817 | SHP2 N-SH2 domain T42A 0.853 | SHP2 N-SH2 domain T52S 0.801 | [2] 0.709

FTGNTYRVGDT [FN1_Y106_YF]
inactive: SHP2 C-SH2 domain E139D 0.797 | [1] 1.09 | SHP2 N-SH2 domain L43F 0.832 | SHP2 N-SH2 domain T42A 0.645 | SHP2 N-SH2 domain T52S 0.797 | [2] 0.73

QPGTDYKIFRF [FN1_Y1970_L1974R_YF]
inactive: SHP2 C-SH2 domain E139D 0.824 | [1] 1.03 | SHP2 N-SH2 domain L43F 0.766 | SHP2 N-SH2 domain T42A 0.479 | SHP2 N-SH2 domain T52S 0.79 | [2] 1.01

FKIFLYTLNDN [FN1_Y1975_YF]
inactive: SHP2 C-SH2 domain E139D 0.71 | [1] 0.842 | SHP2 N-SH2 domain L43F 1.44 | SHP2 N-SH2 domain T42A 0.76 | SHP2 N-SH2 domain T52S 1.64 | [2] 1.08
